Test results as given in PubChem BioAssay (NCATS).
The inconclusive results got no clear call from the source; some entries with a clear call stand among them for comparison. For part of these data: Potencies of inconclusive entries are left out as doubtful fits. For part of these data: A note “side channel” means that the fit belongs to a control or component signal, not to the main read-out. Activity calls are given as the source filed them. Unless noted, calls follow the shape of the dose curve; as a rule, active = well fitted curve in the direction sought with a large enough effect; inconclusive = small, poorly fitted or top-dose-only effect, or another doubt; inactive = no such curve, though single readings can be large; an effect the other way counts as inactive or inconclusive.

Experiments:
[1] = AP1 Signaling Pathway (AID 357; active = well fitted curve in either direction with a large enough effect, not every such curve was filed as active; inconclusive = small, poorly fitted or top-dose-only effect, or another doubt;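 also: ME-180 reporter cells stimulated with EGF at its EC50 level; top concentration of the series differs between compounds; % is scaled to controls: 0 for no effect and ±100 for the full control effect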); conditions: ME-180 AP-1-bla reporter, EGF-induced, beta-lactamase ratio, 5 h; at 38 µM (top of the series)
In short: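 A ratiometric CCF4 readout (405 nm excitation; 460 and 530 nm emission) quantified AP-1-driven beta-lactamase in ME-180 cells after 5 h with compound and EC50 EGF; AC50 values were derived for activators and inhibitors.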

[2] = NFAT Signaling Pathway (AID 444; active = well fitted curve in either direction with a large enough effect, not every such curve was filed as active; inconclusive = small, poorly fitted or top-dose-only effect, or another doubt;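 also: carbachol stimulus at about its EC50 of 1 µM final; % is scaled to controls: 0 for no effect and ±100 for the full control effect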); conditions: Jurkat NFAT-bla M1, carbachol, beta-lactamase ratio, 5 h; at 38 µM (top of the series)
In short: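 Jurkat cells with NFAT-driven β-lactamase reporter and co-expressed M1 receptor, stimulated with carbachol (final 1 uM, ~EC50), compound titration, 5 h at 37 °C. CCF4 loaded 1 h at RT; 460/530 nm ratio gave %activity and AC50.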

[3] = Stat Signaling Pathway (AID 446; active = well fitted curve in either direction with a large enough effect, not every such curve was filed as active; inconclusive = small, poorly fitted or top-dose-only effect, or another doubt;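 also: ME-180 cervical cancer cells given 40 pM IL-6 alongside compound; SIE-controlled beta-lactamase reporter measured as 460/530 nm FRET emission ratio; top concentration of the series differs between compounds; % is scaled to controls: 0 for no effect and ±100 for the full control effect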); conditions: ME-180 SIE beta-lactamase reporter, IL-6 stimulated, 5 h; at 38 µM (top of the series)
In short: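 Emission at 460 and 530 nm (excitation 405 nm) reports SIE-controlled beta-lactamase in ME-180 cells. Cells received compound with 40 pM IL-6 for 5 hrs at 37 C; data scaled between 300 pM IL-6 and 125 nM JAK-inhibitor controls.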

[4] = molecular target: Glucocorticoid receptor (Homo sapiens) (UniProt P04150); test: GR-GFP Redistribution (AID 450;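 active = compounds whose dose series gives a full or clear partial fitted curve of increased nuclear translocation; inconclusive = weak partial curve or effect only at the top dose; inactive = no dose-dependent translocation response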; also: potency is read from the fitted curve at half-maximal effect); conditions: U2OS GR-GFP nuclear translocation, laser cytometry, 2 h
[5] = qHTS Assay for Identification of Small Molecule Antagonists for NFkB Signaling Pathway (AID 895; active = well fitted inhibition curve with a large enough effect in the signal ratio, with a control signal flat, not every such curve was filed as active; inconclusive = small, poorly fitted or top-dose-only effect, or effect the other way, or a change in a side signal; the % refers to the signal ratio; also: potency is read from the fitted curve at half-maximal effect); conditions: NFkB beta-lactamase reporter cells, FRET ratio 460/530, stimulated with 10 pM TNF alpha; activity change, negative = inhibition: at 38.3 µM (top of the series)
In short: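 ME-180 NFkB-bla cells (beta-lactamase under NFkB response element), plated overnight, treated with compound then 10 pM TNF alpha (about EC50) for 5 hrs at 37 C. LiveBLAzer FRET read at 460/530 nm emission, 405 nm excitation.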

[6] = molecular target: Cytochrome P450 2C19 (Homo sapiens) (UniProt P33261); test: qHTS Assay for Inhibitors and Substrates of Cytochrome P450 2C19 (AID 899); conditions: recombinant CYP2C19, luciferin-H EGE luminescence; activity, negative = inhibition: at 57.1 µM (top of the series); also: potency is read from the fitted curve at half-maximal effect; nearly all actives have a fitted effect of over 60% in size
In short: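 Signal comes from luciferase acting on luciferin released by CYP2C19-mediated hydroxylation of Luciferin-H EGE, 10uM (KM). Assay mix: 5nM enzyme, 50mM KPO4; 60 min at 37C with NADPH regeneration. Data normalized against 57uM ketoconazole.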

[7] = qHTS Assay for Identification of Small Molecule Agonists for Hypoxia Response Element Signaling Pathway (AID 914; active = well fitted activation curve with a large enough effect in the signal ratio, with a control signal flat, not every such curve was filed as active; inconclusive = small, poorly fitted or top-dose-only effect, or effect the other way, or a change in a side signal; the % refers to the signal ratio; also: potency is read from the fitted curve at half-maximal effect); conditions: ME-180 HRE-bla reporter, beta-lactamase ratio, CoCl2, 17 h; activation: hits give high values
In short: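 ME-180 cells carrying an HRE-driven beta-lactamase reporter were treated with compounds in a titration series plus an EC50 level of CoCl2 for 17 h at 37 degrees Celsius; CCF4 readout as the 460nm/530nm ratio gave AC50 values.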

[8] = qHTS Assay for Identification of Small Molecule Antagonists for Thrombopoietin (TPO) Signaling Pathway (AID 918); conditions: TPO-dependent cell signaling reporter, antagonist mode; activity change, negative = inhibition: at 38.5 µM (top of the series); also: nearly all actives have a fitted effect of over 60% in size
In short: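 Antagonist mode at EC50 TPO (26 pM) in IL-3-free medium; murine Ba/F3 cells with human TPO receptor and GPIIb-promoter luciferase, 24 hrs at 37 C before luminescent detection.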

[9] = qHTS Assay for Identification of Small Molecule Agonists for NFkB Signaling Pathway (AID 928; calls by dose curve); conditions: NFkB beta-lactamase reporter cells, blue/green ratio
In short: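 Activators were sought with TNF alpha co-added at 10 pM final (its EC50) to beta-lactamase reporter cells. Cells were plated in OPTI MEM with 0.5% FBS and exposed for 5 hrs at 37 C. The FRET substrate ratio was read at 460 and 530 nm.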

[10] = molecular target: Muscarinic acetylcholine receptor M1 (Rattus norvegicus) (UniProt P08482); test: qHTS Assay for Antagonists of Acetylcholine Muscarinic M1 Receptor: Measurement of IP-One Response (AID 944); also: potency is read from the fitted curve at half-maximal effect; nearly all actives have a fitted effect of over 75% in size
[11] = qHTS Assay for Lipid Storage Modulators (AID 1519; calls by dose curve; also: potency is read from the fitted curve at half-maximal effect); conditions: Drosophila S3 cells, BODIPY lipid droplet/cell ratio, laser cytometry, cells loaded with oleic acid; activity change, negative = inhibition: at 57.5 µM (top of the series) unless noted
In short: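 Cells seeded at 5,000 per well were treated with compounds over a concentration series and loaded with oleic acid (400 uM, as added). Lipid droplet fluorescence (488 nm excitation, 500-530 nm channel) was read by laser-scanning cytometry and normalized to 20 uM Triacsin C.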

[12] = qHTS for differential inhibitors of proliferation of Plasmodium falciparum line 7G8 (AID 1815);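 also: potency is read from the fitted curve at half-maximal effect; parasite growth measured after three days of incubation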
[13] = qHTS for differential inhibitors of proliferation of Plasmodium falciparum line W2 (AID 1883); conditions: Potency: Plasmodium falciparum W2 proliferation inhibition;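 also: potency is read from the fitted curve at half-maximal effect; parasites grown with compound for 72 h before lysis and staining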
[14] = qHTS for differential inhibitors of proliferation of Plasmodium falciparum line HB3 (AID 1886); conditions: Potency: Plasmodium falciparum HB3 proliferation inhibition;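 also: potency is read from the fitted curve at half-maximal effect; parasites grown with compound for 72 h before SYBR Green readout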
[15] = molecular target: Ferritin light chain (Equus caballus) (UniProt P02791); test: qHTS Validation Assay for Identification of Novel General Anesthetics (AID 2323); also: potency is read from the fitted curve at half-maximal effect
In short: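 Horse-spleen apoferritin (10 uM) in PBS with 50% saturated 1-aminoanthracene; compounds pin-transferred, 10 min at room temperature. Fluorescence read at 380/535 nm, normalized to free 1-AMA and 1-AMA/apoferritin values; four-parameter Hill fit.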

[16] = molecular target: RecQ-like DNA helicase BLM (Homo sapiens) (UniProt P54132); test: qHTS Validation Assay for Inhibitors of Bloom's syndrome helicase (BLM) (AID 2364); also: potency is read from the fitted curve at half-maximal effect
In short: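 50 nM BLM preincubated 15 min at room temperature with compound in pH 8.0 Tris buffer containing 2.5 ug/ml poly(dI-dC); started with 200 nM TAMRA/BHQ-2 forked duplex and 2 mM ATP (final). Unwinding read as TAMRA fluorescence increase, two reads 2 h apart.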

[17] = Cytometric Cell-Based qHTS for Inhibitors of the mTORC1 Signaling Pathway in MEF (Tsc2-/-, p53-/-) Cells (AID 2660); also: potency is read from the fitted curve at half-maximal effect
In short: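 Cells are plated, treated with compound for 24 hrs at 37 degree Celsius, then fixed, blocked and immunostained for phospho-rpS6 Ser235/236. Propidium iodide counterstain follows. Per-well % positive cells is derived from the PI-normalized phospho-S6 signal.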

[18] = Cytometry Cell-Based qHTS for Inhibitors of the mTORC1 Signaling Pathway in MEF cells (AID 2668); also: potency is read from the fitted curve at half-maximal effect
In short: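 MEFs (Tsc2-/-, p53-/- stably expressing WT Tsc2) treated 24 h at 37 degree Celsius, fixed, stained with Alexa-488 anti-phospho-rpS6 Ser235/236 and propidium iodide; Acumen laser scanning. Reported as % positive cells, phospho-S6 normalized to PI.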

[19] = Validation screen for small molecules that induce DNA re-replication in MCF 10A normal breast cells (AID 463097); also: potency is read from the fitted curve at half-maximal effect; nearly all actives have a fitted effect of over 60% in size
In short: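 MCF 10A cells exposed to compound 48 hr at 37 C, 5% CO2, then Hoechst-stained 40 min. Laser-scanning imaging of nuclear DNA content (405 nm ex, 500-530 nm em); re-replication scored as rise in nuclei with elevated fluorescence intensity.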

[20] = molecular target: ATP-dependent 6-phosphofructokinase (Trypanosoma brucei brucei) (UniProt O15648); test: qHTS Validation Assay to Find Inhibitors of T. brucei phosphofructokinase (AID 485368); conditions: activity change, negative = inhibition: at 57.5 µM (top of the series)
In short: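 qHTS format, up to 57 uM. PFK 1.25 nM; F6P 0.5 mM; ATP 0.1 mM; 5 mM MgCl2, 0.01% Tween20, 0.1% BSA; 0.1 M TEA pH 8.0; 45 min RT; ADP-Glo readout; no-enzyme control = full inhibition.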

[21] = Quantitative high throughput screen for delayed death inhibitors of the malarial parasite plastid, 96 hour incubation (AID 488745); also: potency is read from the fitted curve at half-maximal effect; nearly all actives have a fitted effect of over 70% in size
In short: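 Two-generation (96 h) exposure of luciferase-reporter P. falciparum in erythrocytes, 2% hematocrit, 0.1% parasitemia final, 37 C, 5% CO2, RPMI 1640 with 0.5% Albumax. Growth inhibition scored by reduced luminescence.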

[22] = Quantitative high throughput screen for delayed death inhibitors of the malarial parasite plastid, 48 hour incubation (AID 488752); also: potency is read from the fitted curve at half-maximal effect; nearly all actives have a fitted effect of over 65% in size
In short: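 Cultures: infected erythrocytes at final 2% hematocrit and 0.1% parasitemia in Albumax-supplemented RPMI. Parasites express integrated firefly luciferase. Incubation with compound lasts 48 h before luminescent detection of remaining reporter activity.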

[23] = molecular target: Thioredoxin reductase 1, cytoplasmic (Rattus norvegicus) (UniProt O89049); test: qHTS Assay for Inhibitors of Mammalian Selenoprotein Thioredoxin Reductase 1 (TrxR1) (AID 488773); conditions: Potency: inhibition; also: potency is read from the fitted curve at half-maximal effect; nearly all actives have a fitted effect of over 40% in size
In short: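 Inhibition is scored from the loss of NADPH fluorescence between first and last reads of an 8-min kinetic run. Selenite (400 uM) was the substrate, added after 15 min compound preincubation at room temperature.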

[24] = molecular target: Chromobox protein homolog 1 (Homo sapiens) (UniProt P83916); test: qHTS Validation Assay for Inhibitors of HP1-beta Chromodomain Interactions with Methylated Histone Tails (AID 488953); also: potency is read from the fitted curve at half-maximal effect; nearly all actives have a fitted effect of over 50% in size
In short: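 Compounds pinned into a preassembled complex of HP1-beta and trimethyl-K9 histone H3(1-18) biotin peptide (50 nM each; PBS pH 7.4, 0.01% Tween-20). After 30 min, bead-based AlphaScreen detection followed.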

[25] = molecular target: D(1A) dopamine receptor (Homo sapiens) (UniProt P21728); test: HTS Assay for Allosteric Agonists of the Human D1 Dopamine Receptor: Primary Screen for Agonists (AID 488981); also: potency is read from the fitted curve at half-maximal effect
In short: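 Tetracycline-induced HEK293 Trex D1 cells with forced coupling to calcium, loaded with no-wash calcium dye; kinetic fluorescence read 180 s after compound addition for agonism, then a further 180 s after an EC20 dopamine challenge for potentiation.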

[26] = Validation screen for small molecules that induce genotoxicity in human embryonic kidney (HEK293T) cells expressing luciferase-tagged ELG1 (AID 493106); also: potency is read from the fitted curve at half-maximal effect
In short: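 In this validation screen, increased ELG1-luciferase signal flags compounds causing genetic stress. HEK293T reporter cells are treated 16 hr (37 °C, 5% CO2), developed with ONE-Glo for 30 min at room temperature, and imaged on a CCD-based reader.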

[27] = molecular target: ATPase family AAA domain-containing protein 5 (Homo sapiens) (UniProt Q96QE3); test: Validation screen for small molecules that inhibit ELG1-dependent DNA repair in human embryonic kidney (HEK293T) cells expressing luciferase-tagged ELG1 (AID 493107); conditions: HEK293T ELG1-luciferase level, luminescence, 5-fluorouridine co-treatment, 16 h; activity change, negative = decrease: at 46.1 µM (top of the series); also: potency is read from the fitted curve at half-maximal effect; nearly all actives have a fitted effect of over 70% in size
In short: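 Compounds reducing 5-fluorouridine-driven ELG1-luciferase signal in HEK293T cells were scored; exposure lasted 16 hr at 37 °C with luminescence detected via ONE-Glo.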

[28] = Validation screen for small molecules that induce DNA re-replication in SW480 colon adenocarcinoma cells (AID 504364); also: potency is read from the fitted curve at half-maximal effect
In short: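 Hoechst-stained SW480 nuclei, imaged at 405 nm excitation after 48 hr compound exposure, were counted for elevated DNA content as the re-replication signal.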

[29] = molecular target: Peptidyl-prolyl cis-trans isomerase NIMA-interacting 1 (Homo sapiens) (UniProt Q13526); test: qHTS Validation Assay to Find Inhibitors of Pin1 (AID 504536; active = well fitted inhibition curve with a large enough effect in the polarisation, with a control signal flat, not every such curve was filed as active; inconclusive = small, poorly fitted or top-dose-only effect, or effect the other way; the % refers to the polarisation; also: potency is read from the fitted curve at half-maximal effect)
In short: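 Fluorescence polarization competition: compounds (titration) displace HiFluor-488-labeled Pin1-1b peptide from Pin1 (0.3 uM final) in pH 7.5 HEPES buffer with DTT, 10 min at room temperature; %Activity normalized to no-enzyme wells, curves fitted.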

[30] = molecular target: Ubiquitin carboxyl-terminal hydrolase 1 (Homo sapiens) (UniProt O94782); test: Inhibitors of USP1/UAF1: Pilot qHTS (AID 504865);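 also: rhodamine fluorescence freed from ubiquitin-rhodamine substrate followed over time; potency is read from the fitted curve at half-maximal effect; nearly all actives have a fitted effect of over 35% in size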
In short: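 USP1/UAF1 complex at 1 nM preincubated 15 min at room temperature with compound, then Ub-Rho substrate added at 150 nM final. Fluorescence (480/540 nm) read kinetically in 50 mM HEPES pH 7.8, 0.5 mM EDTA, 1 mM TCEP, 0.1 mg/ml BSA, 0.01% Tween-20.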
Tags tell the direction and shape of the fitted curve or compound fluorescence and quenching.

Sequence of UniProt P21728 (P21728 whole entry, looked up): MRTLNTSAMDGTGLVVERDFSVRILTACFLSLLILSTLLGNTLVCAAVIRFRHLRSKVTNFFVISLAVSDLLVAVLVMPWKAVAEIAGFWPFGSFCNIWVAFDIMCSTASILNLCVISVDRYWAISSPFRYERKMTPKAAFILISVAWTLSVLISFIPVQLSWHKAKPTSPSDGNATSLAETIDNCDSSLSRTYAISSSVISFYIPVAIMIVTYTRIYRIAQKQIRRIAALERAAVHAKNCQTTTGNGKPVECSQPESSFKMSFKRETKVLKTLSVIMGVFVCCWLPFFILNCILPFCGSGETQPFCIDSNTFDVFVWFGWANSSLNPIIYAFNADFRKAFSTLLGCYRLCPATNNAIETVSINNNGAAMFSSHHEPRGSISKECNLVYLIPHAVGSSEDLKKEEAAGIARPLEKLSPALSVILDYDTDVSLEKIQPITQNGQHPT
Sequence of UniProt O94782 (O94782 whole entry, looked up): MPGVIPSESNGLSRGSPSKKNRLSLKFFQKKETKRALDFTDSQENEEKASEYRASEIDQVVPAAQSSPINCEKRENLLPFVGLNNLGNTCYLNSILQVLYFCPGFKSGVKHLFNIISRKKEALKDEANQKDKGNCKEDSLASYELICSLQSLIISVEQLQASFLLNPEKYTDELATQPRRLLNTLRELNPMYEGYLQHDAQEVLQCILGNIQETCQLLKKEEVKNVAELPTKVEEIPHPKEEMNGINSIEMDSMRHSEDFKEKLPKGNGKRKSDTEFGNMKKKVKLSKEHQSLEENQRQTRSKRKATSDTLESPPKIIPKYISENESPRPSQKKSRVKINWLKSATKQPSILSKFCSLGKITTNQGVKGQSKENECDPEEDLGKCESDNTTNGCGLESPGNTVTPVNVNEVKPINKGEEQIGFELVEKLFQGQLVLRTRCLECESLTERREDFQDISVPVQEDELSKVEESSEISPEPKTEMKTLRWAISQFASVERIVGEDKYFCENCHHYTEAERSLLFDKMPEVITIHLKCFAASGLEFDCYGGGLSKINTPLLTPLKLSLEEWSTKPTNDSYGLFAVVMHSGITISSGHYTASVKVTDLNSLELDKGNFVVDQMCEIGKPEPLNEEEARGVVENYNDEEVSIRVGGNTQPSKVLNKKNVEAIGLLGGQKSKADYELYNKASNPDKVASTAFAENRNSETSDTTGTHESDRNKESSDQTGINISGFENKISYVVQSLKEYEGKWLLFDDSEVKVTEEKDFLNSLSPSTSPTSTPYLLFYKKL
Sequence of UniProt Q96QE3 (Q96QE3 whole entry, looked up, the tested form may be a part): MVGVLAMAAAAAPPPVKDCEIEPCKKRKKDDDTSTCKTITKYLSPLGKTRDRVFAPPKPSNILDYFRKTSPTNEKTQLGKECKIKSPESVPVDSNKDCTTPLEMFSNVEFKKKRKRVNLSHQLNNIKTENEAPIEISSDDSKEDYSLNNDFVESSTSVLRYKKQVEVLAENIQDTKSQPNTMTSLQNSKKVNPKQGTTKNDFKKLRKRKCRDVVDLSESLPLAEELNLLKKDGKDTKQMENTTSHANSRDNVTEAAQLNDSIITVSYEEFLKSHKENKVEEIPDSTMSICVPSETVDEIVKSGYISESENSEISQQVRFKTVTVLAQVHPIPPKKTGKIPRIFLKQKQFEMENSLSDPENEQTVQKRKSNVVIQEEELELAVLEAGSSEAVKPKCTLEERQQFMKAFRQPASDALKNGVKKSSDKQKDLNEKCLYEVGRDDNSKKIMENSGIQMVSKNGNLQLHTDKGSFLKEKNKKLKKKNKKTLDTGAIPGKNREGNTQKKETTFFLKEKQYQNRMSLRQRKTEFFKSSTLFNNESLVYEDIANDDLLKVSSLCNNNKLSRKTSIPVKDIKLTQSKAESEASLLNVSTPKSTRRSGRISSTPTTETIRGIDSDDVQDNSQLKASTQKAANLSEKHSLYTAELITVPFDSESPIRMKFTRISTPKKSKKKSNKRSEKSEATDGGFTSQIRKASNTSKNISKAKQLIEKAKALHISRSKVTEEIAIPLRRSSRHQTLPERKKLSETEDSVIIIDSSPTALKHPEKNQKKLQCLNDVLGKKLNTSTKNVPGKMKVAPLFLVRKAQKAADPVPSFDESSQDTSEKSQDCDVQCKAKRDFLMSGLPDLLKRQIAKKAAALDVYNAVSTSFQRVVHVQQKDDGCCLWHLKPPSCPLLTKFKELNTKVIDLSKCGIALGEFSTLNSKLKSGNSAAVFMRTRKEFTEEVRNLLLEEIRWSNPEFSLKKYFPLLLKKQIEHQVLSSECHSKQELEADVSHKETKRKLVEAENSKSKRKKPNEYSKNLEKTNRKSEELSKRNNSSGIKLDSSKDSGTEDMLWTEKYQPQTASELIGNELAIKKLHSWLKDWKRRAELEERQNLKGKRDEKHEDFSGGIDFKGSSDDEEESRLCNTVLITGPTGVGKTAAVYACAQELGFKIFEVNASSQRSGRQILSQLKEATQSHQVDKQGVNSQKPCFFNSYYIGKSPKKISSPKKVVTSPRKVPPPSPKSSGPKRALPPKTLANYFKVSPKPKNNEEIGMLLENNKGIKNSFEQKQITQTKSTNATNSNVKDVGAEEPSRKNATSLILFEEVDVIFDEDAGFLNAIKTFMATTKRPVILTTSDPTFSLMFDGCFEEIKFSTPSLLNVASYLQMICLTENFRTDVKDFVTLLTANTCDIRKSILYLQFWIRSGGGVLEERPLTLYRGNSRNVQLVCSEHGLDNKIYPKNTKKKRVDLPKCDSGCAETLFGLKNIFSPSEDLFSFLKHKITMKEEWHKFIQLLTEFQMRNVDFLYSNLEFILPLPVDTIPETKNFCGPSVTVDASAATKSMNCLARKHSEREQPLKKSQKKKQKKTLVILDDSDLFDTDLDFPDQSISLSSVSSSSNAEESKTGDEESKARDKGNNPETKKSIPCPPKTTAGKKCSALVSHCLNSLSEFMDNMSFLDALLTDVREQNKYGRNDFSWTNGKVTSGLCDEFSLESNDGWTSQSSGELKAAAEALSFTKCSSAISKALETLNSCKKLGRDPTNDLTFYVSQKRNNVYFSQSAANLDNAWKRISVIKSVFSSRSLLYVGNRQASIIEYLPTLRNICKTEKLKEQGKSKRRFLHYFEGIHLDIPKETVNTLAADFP
Sequence of UniProt P54132 (P54132 whole entry, looked up): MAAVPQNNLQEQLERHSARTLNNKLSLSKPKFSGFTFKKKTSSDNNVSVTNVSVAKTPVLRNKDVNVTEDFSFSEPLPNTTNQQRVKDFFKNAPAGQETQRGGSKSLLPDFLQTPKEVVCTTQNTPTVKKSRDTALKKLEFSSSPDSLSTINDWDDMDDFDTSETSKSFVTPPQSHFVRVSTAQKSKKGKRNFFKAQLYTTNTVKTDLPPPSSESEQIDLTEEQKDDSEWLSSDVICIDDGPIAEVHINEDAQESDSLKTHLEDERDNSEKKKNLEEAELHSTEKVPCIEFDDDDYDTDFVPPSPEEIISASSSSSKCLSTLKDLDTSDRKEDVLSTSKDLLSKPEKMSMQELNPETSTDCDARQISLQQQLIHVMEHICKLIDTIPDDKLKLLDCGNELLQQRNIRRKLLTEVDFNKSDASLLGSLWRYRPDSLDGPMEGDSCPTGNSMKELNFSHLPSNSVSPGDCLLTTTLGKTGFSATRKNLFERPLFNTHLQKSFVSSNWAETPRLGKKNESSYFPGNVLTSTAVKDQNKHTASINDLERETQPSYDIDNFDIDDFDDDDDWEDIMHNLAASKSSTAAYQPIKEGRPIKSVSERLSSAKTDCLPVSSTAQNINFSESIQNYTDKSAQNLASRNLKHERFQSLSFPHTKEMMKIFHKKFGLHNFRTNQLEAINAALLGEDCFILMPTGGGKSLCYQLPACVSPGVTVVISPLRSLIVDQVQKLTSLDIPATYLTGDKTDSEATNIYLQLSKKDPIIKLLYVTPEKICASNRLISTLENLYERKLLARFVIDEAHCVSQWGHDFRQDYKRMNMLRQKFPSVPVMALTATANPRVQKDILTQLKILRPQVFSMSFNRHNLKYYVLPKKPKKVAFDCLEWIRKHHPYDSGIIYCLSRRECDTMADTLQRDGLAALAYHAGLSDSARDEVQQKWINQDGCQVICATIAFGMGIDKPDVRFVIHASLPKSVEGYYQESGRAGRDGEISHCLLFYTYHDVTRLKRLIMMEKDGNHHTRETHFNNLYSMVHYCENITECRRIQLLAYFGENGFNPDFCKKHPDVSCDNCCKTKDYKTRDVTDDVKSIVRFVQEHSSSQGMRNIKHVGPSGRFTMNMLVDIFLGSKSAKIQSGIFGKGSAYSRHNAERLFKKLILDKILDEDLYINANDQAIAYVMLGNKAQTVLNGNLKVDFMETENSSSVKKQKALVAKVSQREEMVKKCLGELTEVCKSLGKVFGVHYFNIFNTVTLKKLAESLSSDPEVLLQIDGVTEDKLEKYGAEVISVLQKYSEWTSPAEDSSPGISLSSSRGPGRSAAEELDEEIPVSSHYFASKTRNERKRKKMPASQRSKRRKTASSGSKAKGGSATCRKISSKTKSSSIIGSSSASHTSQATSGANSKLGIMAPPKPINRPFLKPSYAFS
Sequence of UniProt Q13526 (Q13526 whole entry, looked up): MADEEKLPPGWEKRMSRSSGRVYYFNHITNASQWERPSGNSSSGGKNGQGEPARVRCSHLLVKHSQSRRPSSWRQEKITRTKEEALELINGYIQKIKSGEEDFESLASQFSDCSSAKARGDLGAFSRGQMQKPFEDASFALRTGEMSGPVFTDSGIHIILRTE
Sequence of UniProt P02791 (P02791 whole entry, looked up): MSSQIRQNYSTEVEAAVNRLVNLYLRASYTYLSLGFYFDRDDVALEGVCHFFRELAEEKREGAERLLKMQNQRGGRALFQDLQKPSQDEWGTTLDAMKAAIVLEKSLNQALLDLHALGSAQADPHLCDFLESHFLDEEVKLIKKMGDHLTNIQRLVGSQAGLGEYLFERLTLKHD
Sequence of UniProt P83916 (P83916 whole entry, looked up): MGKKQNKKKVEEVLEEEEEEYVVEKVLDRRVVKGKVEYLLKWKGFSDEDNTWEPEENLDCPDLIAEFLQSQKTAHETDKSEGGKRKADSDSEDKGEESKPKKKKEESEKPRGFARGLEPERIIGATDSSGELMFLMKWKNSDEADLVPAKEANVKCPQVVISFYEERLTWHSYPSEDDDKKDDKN

CN(C)S(=O)(=O)c1ccc2c(c1)/C(=C/c1cc3c([nH]1)CCCC3)C(=O)N2
activity change, negative = inhibition [1]: inconclusive: -84.5% [inhibitor]
activity change, negative = inhibition [2]: inconclusive: -51.6% [inhibitor]
activity, negative = inhibition [3]: active: -60.7%
Potency [4]: inconclusive [single point]
Potency [5]: active: 1.58 µM
Potency [6]: inconclusive [inhibitor, full curve]
Potency [7]: inconclusive [inhibitor, partial curve, poor fit]
activity change, negative = inhibition [8]: inconclusive: -23.3% [phenotype inactive]
Potency [9]: inconclusive [inhibitor, full curve]
Potency [10]: inconclusive [inhibitor, partial curve, poor fit]
Potency [11]: active: 28.2 µM
Potency [12]: active: 4.47 µM
Potency [13]: active: 3.55 µM
Potency [14]: active: 3.98 µM
Potency [15]: inconclusive [inhibitor, partial curve]
Potency [16]: inconclusive [inhibitor, full curve, poor fit]
Potency [17]: inconclusive [falling, partial curve]
Potency [18]: inconclusive [falling, partial curve]
Potency [19]: inconclusive [activator, single point]
Potency [20]: inactive
Potency [21]: active: 3.7 µM
Potency [22]: inconclusive [inhibitor, partial curve, poor fit]
Potency [23]: inconclusive [inhibitor, partial curve]
Potency [24]: inconclusive [inhibitor, full curve]
Potency [25]: active: 12.6 µM
Potency [26]: inconclusive [activator, partial curve]
Potency [27]: inconclusive [inhibitor, single point]
Potency [28]: inconclusive [activator, single point]
Potency [29]: inconclusive [fluorescent, side channel, full curve]
Potency [30]: active: 25.1 µM
